Molecules are shown by their SMILES. The list shows a part of the results.

The subject of the first experiment is HSkMC (human skeletal muscle cells). Briefly: cytotoxicity call (relative viability < 0.9). Conditions: 10 µM.
With `C[C@@H]1CN([C@H](C)CO)C(=O)c2cc(C#CC3(O)CCCC3)cnc2O[C@@H]1CN(C)C(=O)CN(C)C`, the cytotoxicity call was “inactive”. Still for that read-out and setting: the value for `COc1ccc(S(=O)(=O)N(C)C[C@H]2OCCCC[C@H](C)Oc3ccc(NS(=O)(=O)c4ccc(Cl)cc4)cc3C(=O)N([C@H](C)CO)C[C@@H]2C)cc1` was “inactive”; that for `CC(C)NC(=O)N(C)C[C@@H]1Oc2ccc(NC(=O)CCN3CCOCC3)cc2C(=O)N([C@@H](C)CO)C[C@@H]1C` was “inactive”. Same read-out and setting: the value for `C[C@H](CO)N1C[C@H](C)[C@@H](CN(C)S(=O)(=O)c2cccs2)OCCCC[C@H](C)Oc2ccc(NC(=O)Nc3ccc(C(F)(F)F)cc3)cc2C1=O` was “inactive”; that for `COc1ccc(NC(=O)Nc2ccc3c(c2)C(=O)N([C@@H](C)CO)C[C@H](C)[C@H](CN(C)S(=O)(=O)c2cccs2)OCCCC[C@@H](C)O3)cc1` was “inactive”; that for `C[C@@H](NC(=O)C[C@H]1CC[C@@H](NC(=O)CN2CCOCC2)[C@@H](CO)O1)c1ccccc1` was “inactive”. For the molecule `CCCN(C)C[C@@H]1OCCCC[C@H](C)Oc2ccc(NC(=O)c3ccccc3)cc2C(=O)N([C@H](C)CO)C[C@@H]1C`, the cytotoxicity call was “inactive”. Consider `COc1ccc(S(=O)(=O)N(C)C[C@@H]2Oc3ccc(NC(=O)CCN4CCOCC4)cc3C(=O)N([C@H](C)CO)C[C@@H]2C)cc1`, for which the cytotoxicity call is “inactive”. Take `COc1ccccc1C#Cc1ccc2c(c1)O[C@@H](CN(C)Cc1ccncc1)[C@H](C)CN([C@H](C)CO)S2(=O)=O`: the cytotoxicity call was “active”. The same measure, in the same setting: with `C[C@@H]1CCCCO[C@H](CN(C)Cc2ccc(C(F)(F)F)cc2)[C@H](C)CN([C@@H](C)CO)C(=O)c2cc(NC(=O)CCCN(C)C)ccc2O1` the entry was “inactive”; with `C[C@H](CO)N1C[C@H](C)[C@H](CN(C)C(=O)Cc2ccccc2)OCCCC[C@H](C)Oc2ccc(NC(=O)Nc3cccc4ccccc34)cc2C1=O`, “inactive”.

A further experiment relates to HepG2. Briefly: cytotoxicity call (relative viability < 0.9). Conditions: 10 µM.
Turning to `Cc1noc(C)c1S(=O)(=O)Nc1ccc2c(c1)C(=O)N([C@@H](C)CO)C[C@@H](C)[C@H](CN(C)CC1CCCCC1)OCCCC[C@@H](C)O2`, the cytotoxicity call is “inactive”.

As to `COc1ccc(CN(C)C[C@@H]2OCCCC[C@H](C)Oc3ccc(NC(=O)NC4CCCCC4)cc3C(=O)N([C@H](C)CO)C[C@@H]2C)cc1`, the cytotoxicity call was “inactive”. On to `C[C@@H]1CCCCO[C@H](CN(C)Cc2ccc(C(F)(F)F)cc2)[C@@H](C)CN([C@H](C)CO)C(=O)c2cc(NC(=O)NC3CCCCC3)ccc2O1`, for which the cytotoxicity call was “active”. The same measure, in the same setting: the value for `C[C@H]1CCCCO[C@@H](CN(C)Cc2ccc(C(=O)O)cc2)[C@@H](C)CN([C@@H](C)CO)C(=O)c2cc(NC(=O)Nc3ccc4c(c3)OCO4)ccc2O1` was “inactive”; that for `CC(C)NC[C@H]1CCC(=O)N1` was “inactive”; that for `C[C@H]1ON(c2ccc(C(=O)OC(C)(C)C)cc2)[C@@H](c2ccc(O)cc2)[C@@H]1C(=O)N1C(=O)OC[C@@H]1c1ccccc1` was “inactive”. Same read-out and setting: the value for `C[C@@H]1CN([C@H](C)CO)S(=O)(=O)c2ccc(-c3cncnc3)cc2O[C@H]1CN(C)C(=O)c1cccc(F)c1` was “inactive”; that for `COC(=O)CCCCCCNC(=O)c1ccc(NCc2cn(Cc3ccc(C(=O)c4ccc(Cn5cc(CNc6ccc(C(=O)NCCCCCCC(=O)OC)cc6)nn5)cc4)cc3)nn2)cc1` was “inactive”. On the same count and under the same terms, with `C[C@H]1CN([C@@H](C)CO)C(=O)Cc2cc(NC(=O)c3ccncc3)ccc2O[C@@H]1CN(C)Cc1ccc(Oc2ccccc2)cc1` the entry was “inactive”; with `C[C@@H]1CN([C@H](C)CO)C(=O)Cc2cc(NS(C)(=O)=O)ccc2O[C@H]1CN(C)S(=O)(=O)c1ccccc1`, “inactive”. In the case of `C[C@H]1CN([C@@H](C)CO)C(=O)CCCn2nncc2CO[C@H]1CN(C)C(=O)Nc1cccc(Oc2ccccn2)c1`, the cytotoxicity call is “inactive”. The same measure, in the same setting: with `C=CCC[C@H](Cc1ccc(F)cc1)C(=O)OC[C@H]1CCCN1C(=O)[C@@H](CC=C)CC(=O)N(CCO)Cc1ccccc1` the entry was “inactive”; with `CCCc1c(SCCCOc2ccc(C(C)=O)c(OCCCC(=O)O)c2CCC)ccc(C(C)=O)c1O`, “inactive”; with `CCCCCCCCCCCCCCCCCCOC[C@H](COP(=O)(O)O[C@H]1[C@@H](O)[C@@H](O)[C@@H](O)C[C@@H]1OC)OC`, “inactive”. As to `O=C(C[C@@H]1CC[C@@H]2[C@H](COC[C@H](O)CN2S(=O)(=O)c2ccc(Cl)cc2)O1)N1CCc2ccccc2C1`, the cytotoxicity call was “inactive”.

With `O=C(O)Cc1cccc(OCCCN(Cc2cccc(C(F)(F)F)c2Cl)CC(c2ccccc2)c2ccccc2)c1`, the cytotoxicity call was “inactive”. The same measure, in the same setting: the value for `O=C(Cc1ccccn1)NCC[C@@H]1CC[C@H](NC(=O)CN2CCOCC2)[C@@H](CO)O1` was “inactive”.

The values above are taken from the antibiotic and cytotoxicity screens of Wong et al. (2023).
